{"source": "paper PMC12136788", "binders": {"B1": {"name": "chr4:17845017:17845018:+_ENSG00000109805_ENST00000514176|hu_mus|hu_hu_hu_mus_False|18_78 (ssRNA)", "RNA": "GGGAGUUCUACAGUCCGACGAUCGCUCUCUUAACUUGUAUCUUCAUUAAGGAACUCGCAAGGUUAAAGUUUACUUUUCUGUAGCGCAGCUGUUUUGGCUCGUCUGGGUAAUCUCAUUUCAUUUCUGGAUGGUGGUUCAUGAUCCAACAGAGGAUUGAGCAUCA"}, "B2": {"name": "chr18:33598288:33598289:-_ENSMUSG00000042834_ENSMUST00000171533|mus_hu|FALSE|FALSE (ssRNA)", "RNA": "GGGAGUUCUACAGUCCGACGAUCAGUCAGAAUGAUUAAAAACUGGUUUGAUGACACCUAUUUGUCCACUGUAAAUUCUCUAAAGCAAGGCUCAGAGUCCCAUAGUUUCUUCUUAUACUUGAUGAUUUACACAGAAAAAAAUCCCAACAGAGGAUUGAGCAUCA"}, "B3": {"name": "chr4:95585135:95585136:+_ENSG00000163110_ENST00000317968|hu_mus|FALSE|FALSE (ssRNA)", "RNA": "GGGAGUUCUACAGUCCGACGAUCUUUGCAAAGUGGCUUGUCCUUCUUGGAGAAAAAUGUCUGCCCUUCCAAACUUUCACAACACACAGAGCACACAAAGCAAGUAUCAUGCCAAGUGUAUCCCAGAGCUUCCAGGAACAUGUCCAACAGAGGAUUGAGCAUCA"}, "B4": {"name": "chr17:37075478:37075479:+_ENSG00000002834_ENST00000318008|hu_mus|FALSE|FALSE (ssRNA)", "RNA": "GGGAGUUCUACAGUCCGACGAUCGAGGCAGAGAGUCAGGAAGAUGGACUAGGGCAAAGGUCAGCACGAGGCCUUAAUACCGACCCCCUGGGGAUGUGUGGAGCCACACCUGGAGGUAUGAGGAGGACACAGCUCACCCCAGCUCAACAGAGGAUUGAGCAUCA"}, "B5": {"name": "chr9:119461815:119461816:+_ENSG00000119401_ENST00000373983|hu_hu|FALSE|FALSE (ssRNA)", "RNA": "GGGAGUUCUACAGUCCGACGAUCCUUAGGAGUUAGGGCUAUGCCCACCGGACAGGUAAGUCCCUCUCGAAUAAGGACACUAUAGCCCCCACCCUUAGGAAAAUGGAGAAUUUCCUUGCGACUACUGUCAGCCACGAUGAGAUCCAACAGAGGAUUGAGCAUCA"}, "B6": {"name": "chr7:135839593:135839594:+_ENSMUSG00000042105_ENSMUST00000151237|mus_mus|FALSE|FALSE (ssRNA)", "RNA": "GGGAGUUCUACAGUCCGACGAUCCUGAGAGUCAGUUAACCAGAGUAAGGCUCUAAAGGAUGCCAGAGACAUUGAUACCUGCUAGAAUAUGCCUACAGCUUUCUCACUCUGGGUUACAGAAGAGGUUCUUGGUGGUUAGUUACUCAACAGAGGAUUGAGCAUCA"}, "B7": {"name": "43401038_43402418_1595_CDS_ENSG00000124574_ENST00000372530|human|control|control (ssRNA)", "RNA": "GGGAGUUCUACAGUCCGACGAUCUGCCUGCUCCCACCCGCAGAACUUGAUGACCCGAAUGCCACUCAGCAGCUCUGUCACAAGCUUAACCCGCGCAUCCUUGUGCUGUAGCAUUUCCUGGUUGCUGGCCAUGAUGCGGGUGGCCAACAGAGGAUUGAGCAUCA"}, "B8": {"name": "chr1:109605286:109605287:-_ENSG00000197780_ENST00000461096|hu_hu|FALSE|FALSE (ssRNA)", "RNA": "GGGAGUUCUACAGUCCGACGAUCAUAAACAAUAACAUUCAGUGAUCUACUUAAAUCCAAUUGUAAUCCUUACUUUAAACUAAGGGCAAUAAUAAUUUAAUACAUAGAGUAAAUACACACAAAACCUGUGUAUUCAGAACUACACAACAGAGGAUUGAGCAUCA"}, "B9": {"name": "chr20:7962013:7962014:-_ENSG00000125827_ENST00000246024|hu_hu|motif|central (ssRNA)", "RNA": "GGGAGUUCUACAGUCCGACGAUCGAGGACUUCUGGCUUGAAAAAUAUUGCUUAGAAAACUUAAAAAAAAAUCAACAACAACGGUAUUUUGGACAAAACAAUUUUUUUUUAAUCUGUCUUGUAAAAUCCUUACUUCCUUUUGAGCAACAGAGGAUUGAGCAUCA"}, "B10": {"name": "chr13:100191535:100191536:-_ENSMUSG00000052727_ENSMUST00000064762|mus_mus|motif|central (ssRNA)", "RNA": "GGGAGUUCUACAGUCCGACGAUCAGAGGGGAUAUUGCACACAAAUAUCAUAAAAGCACUACAUAUUACUUUCACUGGAAACGGAUUUUUCUACAUUAGAUAUGACUGGAUAGGAUGGAAGUGAUGCAGGAUUAUAAGACAUAACAACAGAGGAUUGAGCAUCA"}, "B11": {"name": "chr8:125728745:125728746:-_ENSMUSG00000000743_ENSMUST00000000759|mus_hu|FALSE|FALSE (ssRNA)", "RNA": "GGGAGUUCUACAGUCCGACGAUCGGCAGGUUUUCCUCACAGCAGCCCCAACCCCAGCCCAGCUGAAGACGGCUCUCCUGAGCUCCCUUCAUCAGCUGCCUUGGCUUCCAAGCUGGGAAGGCAUUGGGGUGUGGUCGGGGAAGGCAACAGAGGAUUGAGCAUCA"}, "B12": {"name": "chr11:10818680:10818681:-_ENSG00000110321_ENST00000525681|hu_hu|FALSE|FALSE (ssRNA)", "RNA": "GGGAGUUCUACAGUCCGACGAUCUAUAUAAAAUCAGGGCAUGAACAUGACUUGAUAAAUUAAGUAGACUUAAUUUCAAUACUAUAAUAGGAGGGACCAAUUCAAAUUCUCACCAUUUGUUUCACACCCACAAAAACCACUUCACAACAGAGGAUUGAGCAUCA"}, "B13": {"name": "chr1:32384726:32384727:-_ENSG00000184007_ENST00000602725|perfect_dup|motif|central (ssRNA)", "RNA": "GGGAGUUCUACAGUCCGACGAUCAAAAAAAAAUCAAUAAAUCUUGAAAUGUUUCACAGCAGAAAACAUUAAAAAGACCACGGAAAUGCCUAUUAUCAAUCAGUGUUUUCUCUAUUCAACUUGUUUAUUCCUUAUGAAGCUUCUCAACAGAGGAUUGAGCAUCA"}, "B14": {"name": "chr16:46708560:46708561:-_ENSG00000069329_ENST00000568784|perfect_dup|FALSE|FALSE (ssRNA)", "RNA": "GGGAGUUCUACAGUCCGACGAUCCAAAAAGUUUAAUAUCCGCUGGGAUUCCAGGUCCAUCUUCACGGUGAGCAAAUAAAGCUAAUCUAUCAAUUAAAGCAAUGAUUAUGUUCUUCACAUUUACAUUCUGGUGUAACUCAGCACCAACAGAGGAUUGAGCAUCA"}, "B15": {"name": "chr3:41277855:41277856:+_ENSG00000168036_ENST00000349496|hu_hu|FALSE|FALSE (ssRNA)", "RNA": "GGGAGUUCUACAGUCCGACGAUCUUCAAUAGCUUCUGCAGCUUCCUUGUCCUGAGCAAGUUCACAGAGGACCCCUGCAGCUACUCUUUGGAUGUUUUCAAUGGGAGAAUAAAGCAGCUGCACAAACAAUGGAAUGGUAUUUAGCAACAGAGGAUUGAGCAUCA"}, "B16": {"name": "66377282_66378621_497_3pUTR_ENSG00000166479_ENST00000299608|human|control|control (ssRNA)", "RNA": "GGGAGUUCUACAGUCCGACGAUCUCCAACCUUAACUGGAGAACCAAUGCUUUUCAUCUCAAGACCAACUUCAUUCCAAAUUGGUUCCAGCUUUUUACAAUGGCCACACCAUGGCGCAUAAAAAUCUACAAGCCAAAUGUCAUCCAACAGAGGAUUGAGCAUCA"}, "B17": {"name": "chr2:232597714:232597715:-_ENSG00000156973_ENST00000287600|hu_mus|FALSE|FALSE (ssRNA)", "RNA": "GGGAGUUCUACAGUCCGACGAUCGAAAAGCCUCACUUUGGAUGUGCUGACAAGAAGAUCAUCGUCAAAGAACUUUGUCUCUAUGAUGACAUUGCCCGUUAGGACGCUGGCGGGCAUCAUCUGGGACUCAGGCGCUGCUUCUAUCAACAGAGGAUUGAGCAUCA"}, "B18": {"name": "chr11:79222206:79222207:+_ENSMUSG00000020716_ENSMUST00000071325|mus_mus|FALSE|FALSE (ssRNA)", "RNA": "GGGAGUUCUACAGUCCGACGAUCCUUUGUAAAUUCAUCCGGAUAAUUUUCUACCCAGUUCCAAAAAGCCUUUUCUAGGCUAUUUAUAACUGCCAACUGUGCAACCUUCUUCAGGGCUUUAAAUUUAAAUGCUGUUUCCUUCAGCAACAGAGGAUUGAGCAUCA"}, "B19": {"name": "chr12:27888400:27888401:+_ENSG00000061794_ENST00000081029|hu_hu|FALSE|FALSE (ssRNA)", "RNA": "GGGAGUUCUACAGUCCGACGAUCGGUCUUGCAGUAUCGCUCUCCUACAAGUUUAAUUAAUUUCUUCUUUGCGUGAUCAUCUAAAUUCAAACUGGAAAGCUUUACUCUUAAGACUACUACUCGUGCUCUGGGGUUCCGAACAGACAACAGAGGAUUGAGCAUCA"}, "B20": {"name": "chr6:136600977:136600978:-_ENSG00000029363_ENST00000527536|hu_mus|motif|central (ssRNA)", "RNA": "GGGAGUUCUACAGUCCGACGAUCCGAGACCUAGAACUGUAUCUCUUCUUUCUAGAAUGUGAUCUUGAUCUUGAUCGGGAACGGGACUGUGAUCUAGACUUGGAUCUUGAAGAAUGUGAUCUAGAAUUGGAGCGGCCCAUUUCUCAACAGAGGAUUGAGCAUCA"}, "B21": {"name": "chr12:39756943:39756944:-_ENSG00000139116_ENST00000544797|hu_mus|hu_hu_hu_mus_False|98_108 (ssRNA)", "RNA": "GGGAGUUCUACAGUCCGACGAUCGGUUUGGCUAUUACCCCCGAGGGAAUCCUGCAAGAGUCUUGUCAGCUUAGAGUCUCUGUAAGGGACAUGGGUGGCUCUCUUGCUCUUGUCCCCCAAGGCGCUGAUUACAUUCCCAAGAGCCAACAGAGGAUUGAGCAUCA"}, "B22": {"name": "chr5:37680062:37680063:+_ENSMUSG00000029121_ENSMUST00000031004|mus_hu|mus_mus_mus_hu_False|38_58 (ssRNA)", "RNA": "GGGAGUUCUACAGUCCGACGAUCUUUGGGUGUAGCUGGUACCUCGUACACAGGACCGUCAUACAUGCCCCUGGAAACACUAUGCAAUCCAAAAACCUUGCUUCUGAUUUUGACGCGCUGGUACAGGUGCUCCGGGAACGCCUUCAACAGAGGAUUGAGCAUCA"}}, "note": "Some of the results follow."}
{"target": "T1, UNK ZnF1-3 (human, UniProt Q9C0B0 31-174)", "T1 sequence": "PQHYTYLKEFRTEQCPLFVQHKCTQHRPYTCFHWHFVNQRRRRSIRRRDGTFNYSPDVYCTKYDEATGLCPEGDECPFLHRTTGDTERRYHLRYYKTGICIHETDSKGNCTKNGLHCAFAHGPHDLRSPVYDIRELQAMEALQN", "assay": "nsRBNS (natural sequence RNA bind-n-seq); RBNS binding buffer (assumed for nsRBNS): 25 mM Tris pH 7.5, 150 mM KCl, 3 mM MgCl2, 0.01% Triton X-100, 500 ug/ml BSA, 20 U/ml SUPERase-In, 4 C; UNK is unkempt and MSI1 is Musashi-1; names of the RNAs are library labels; protein concentration not given here; high values mean tight binding", "units": {"binding signal": "enrichment R"}}
{"binder": "B1", "binding signal": 0.441}
{"binder": "B2", "binding signal": 0.849}
{"binder": "B3", "binding signal": 1.42}
{"binder": "B4", "binding signal": 1.27}
{"binder": "B5", "binding signal": 0.489}
{"binder": "B6", "binding signal": 1.08}
{"binder": "B7", "binding signal": 0.602}
{"binder": "B8", "binding signal": 0.608}
{"binder": "B9", "binding signal": 1.05}
{"binder": "B10", "binding signal": 1.56}
{"binder": "B11", "binding signal": 0.402}
{"binder": "B12", "binding signal": 2.15}
{"binder": "B13", "binding signal": 1.03}
{"binder": "B14", "binding signal": 1.15}
{"binder": "B15", "binding signal": 1.14}
{"binder": "B16", "binding signal": 0.757}
{"binder": "B17", "binding signal": 0.875}
{"binder": "B18", "binding signal": 0.978}
{"binder": "B19", "binding signal": 0.63}
{"binder": "B20", "binding signal": 0.477}
{"binder": "B21", "binding signal": 0.692}
{"binder": "B22", "binding signal": 0.731}
